Laboratory results from the supplement of paper PMC11417369.
± gives the standard deviation of the averaged measurements. This is one part of the list.

tested on: PfAP2-LT AP2 domain (GST-tagged); assay: gcPBM binding intensity (ln(normalized median fluorescence intensity)); higher = stronger DNA binding
Outline: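 GST-tagged P. falciparum DNA-binding domains produced in E. coli were incubated for 1 h on an Agilent 4 × 180k array of primer-extended double-stranded 36-bp intergenic genomic probes with negative controls. Binding intensity is the highest Masliner-normalised natural-log median intensity across replicate spots of either probe orientation, with bound protein detected by Alexa488 anti-GST antibody at 488 nm.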

Row | Sequence | gcPBM binding intensity (ln)
1 | TTATAATTTAATAAATGTACATAAATAATATACATA [XGTACX_site7271] | 8.43 ± 0.45
2 | AACACAATAAAAATTAAAAATGTTAAGTAAATATAA [GTGCAC_negctrl_site60] | 8.68 ± 0.52
3 | AGACAATATCTTATTTGTACATATGTATTCCTCATA [XGTACX_site5757] | 8.93 ± 0.43
4 | AAAAAAAAAAAAAAAACACACATATAGATTATTGTA [CACACA_site7797] | 8.74 ± 0.35
5 | TTTTAATTTATCGACACACGCATGAATAGAAATTAG [CACACA_site3361] | 8.72 ± 0.42
6 | TATTTTTATTTTCCTTCACACATTTTTTATATTTTT [CACACA_site5830] | 8.92 ± 0.49
7 | TTATAAATTTAAAAAGTGCATAATAATAACAAAAAG | 8.68 ± 0.45
8 | TATGTATATTTAAATGCATGTGATTATTTTTGACTT [TGCATGCA_site568] | 8.66 ± 0.38
9 | ACTTTTTTTTTTTTTTTAGATTACATAAATATAAAT [CACACA_negctrl_site139] | 8.47 ± 0.5
10 | TGCCATATATATATTAAATACATAATAATGAGCCTA [GTGCAC_negctrl_site10] | 8.62 ± 0.47
11 | AGTCATAAATTTATTTGTACATATAATATATATATA [XGTACX_site8489] | 8.7 ± 0.3
12 | AAAATATATAATTTTTAACACACAAAAAAAAAAAAA [CACACA_site9192] | 8.63 ± 0.42
13 | ATAAACAAAAAAAAAAAATATATCAATATATATATA [CACACA_negctrl_site299] | 8.62 ± 0.49
14 | TAAAAATATAAAAAGTGTACAATATATAAATTAATA [XGTACX_site1606] | 8.84 ± 0.44
15 | ATATTAAAAAAATATGCATGCAAATATTATTTTGTA [TGCATGCA_site191] | 8.71 ± 0.33
16 | AATCAAATTTTCAAGTCGCACCAAACAAAAAAATGA [CACACA_negctrl_site1397] | 8.84 ± 0.52
17 | TATTTAATTAATATAATATTAAACGGAAAAGATAAA [TGCATGCA_negctrl_site148] | 8.38 ± 0.54
18 | ATGTTATATTTTTTTATACACACTGGGATATATAAA [CACACA_site6244] | 8.74 ± 0.39
19 | TTCATTGTGTTAACGGTGCATATATTTTTTCACCGT [GTGCAC_site9464] | 9.03 ± 0.47
20 | CATTAATTTAATAAATGTACATAAAATATATATTAT [XGTACX_site8085] | 8.58 ± 0.37
21 | TAAAATTTACAACACTGTACTTGAATTTATCTTTAA [XGTACX_site241] | 8.56 ± 0.53
22 | GCAGTATGCGATCAGTGTACGAGTTATTTTATAAAA [XGTACX_site4764] | 8.61 ± 0.54

Row | Sequence | gcPBM binding intensity (ln)
23 | AAATGCGTATATAACGCATGTATAAGAACATTTTTT [TGCATGCA_site225] | 8.83 ± 0.44
24 | TTATAATCTATACATATATATGTATGTATGTCTCAA [CACACA_negctrl_site1702] | 8.9 ± 0.47
25 | ACATCATTTTTATGTACACACACATATACGTTGAAT [CACACA_site5095] | 9.55 ± 0.26
26 | GAAGTATTATTAAAGCTGCACTTTTCTAAAATAAAC [GTGCAC_site9429] | 8.46 ± 0.5
27 | ATATTACAAATATAATGTACAAAATATAAATATGCA [XGTACX_site8106] | 8.89 ± 0.37
28 | GTCCTTACTAATTAATTTTAGGCCATATAGTTTGTC [XGTACX_negctrl_site199] | 8.93 ± 0.49
29 | CTAATATATGTATGCACACACAATATATACATATTT [CACACA_site3360] | 9.37 ± 0.37
30 | GTTATACACATATATACACACATATGTAAATATATA [CACACA_site9080] | 9.15 ± 0.35
31 | CATACGTTCTAATATATACACACCTGGTATTAATTA [CACACA_site2221] | 8.88 ± 0.41
32 | CTATAATGTTTCTTTCAACACACAAAAAATGAACAC [CACACA_site8438] | 8.84 ± 0.45
33 | ATTGCGTGATAATAATGTACAAAAAGTAATTTATAT [XGTACX_site8339] | 8.86 ± 0.44
34 | TCATTCTAAATATAAACACACATAAATATATACATT [CACACA_site3354] | 8.78 ± 0.37
35 | AATATATAATTTTTAACACACAAAAAAAAAAAAAAT [CACACA_site3581] | 8.87 ± 0.47
36 | AAAAAAAAAAAAAAAACACACACATATAATATATTT [CACACA_site8369] | 9.15 ± 0.33
37 | GGTACGTATTTCAATGCATGTCCATGTACATATAAA [TGCATGCA_site208] | 8.85 ± 0.29
38 | TTTTTATTTATATGTATACACACTTTAATTAAAAGT [CACACA_site2525] | 9 ± 0.54
39 | TGTTATATATAAATTTGTACACATAAATATTTTTAC [XGTACX_site5873] | 8.71 ± 0.5
40 | AATAAAAAAAAATGCACACATATATATATATATATA [CACACA_site2421] | 9.83 ± 0.35
41 | CAGAATATATTCTATACATGCAATAGGAAATGTAGC [TGCATGCA_site110] | 8.96 ± 0.38
42 | AAAAAAAAAAAAAAAAGTACAAAAATATATATGCAT [XGTACX_site8392] | 8.65 ± 0.51
43 | TATGCACAGAAACACACACACACAACCAAAAAATAA [CACACA_site5425] | 9.9 ± 0.33
44 | TTTTTATATATATGTATAAATATTTTTTCTATTTAT [XGTACX_negctrl_site606] | 8.46 ± 0.49

Row | Sequence | gcPBM binding intensity (ln)
45 | AAATTTTCTTAAGGTTGTACTTTTTGAAAATAATCT [XGTACX_site4894] | 8.29 ± 0.4
46 | TGTAGTCTGGAGAAACGTACATAGTATCTGGTAGCT [XGTACX_site2538] | 8.91 ± 0.42
47 | AATGTGTAGGTAAGATAATTTTTGTTTTTTTATTTG [CACACA_negctrl_site424] | 8.68 ± 0.43
48 | ATATTTATAATATAGAGTACTTACTAAGTTATGGGT [XGTACX_site5405] | 8.68 ± 0.42
49 | TTAAACTTGAAACACACACACACACCCATATAAAAA [CACACA_site758] | 10.1 ± 0.064
50 | AACTCACGAGGACACACACACATATATATATATATA [CACACA_site4711] | 10.38 ± 0.035
51 | TATAATATATCTGTAACACACAAAAGTTATATACTT [CACACA_site5578] | 8.8 ± 0.4
52 | TTTTTTTCTCTCTCTACACACAAGGTTTAATTTAAA [CACACA_site1690] | 8.73 ± 0.41
53 | ACATACATACATACATACATACATACATACATACAT [XGTACX_negctrl_site315] | 9.3 ± 0.27
54 | TCATAGGGGTAGAAGGTGCAATAAAAAAGAAGAAAA | 8.65 ± 0.75
55 | GAATTTCAACAAAGTAGTACATTTTATAGTAATTGG [XGTACX_site2319] | 8.57 ± 0.42
56 | ATAAATATGTTCTGCACACAAATAAGTGTTTGAAGT [CACACA_site3892] | 9.05 ± 0.33
57 | TAATGGAATAAAAATTGTACATATTTTTTTTTTTTT [XGTACX_site7669] | 8.45 ± 0.36
58 | AATAGGTGCCTTTTTTCACACACATGTCAACTAAAT [CACACA_site8846] | 9.34 ± 0.36
59 | TTTGGTAAGCGTGTCGCATGTAGAACAAGTCTACAT [TGCATGCA_site577] | 8.73 ± 0.35
60 | ATGAAATTATTATATAAACACACATTTATTTTATTT [CACACA_site8597] | 8.65 ± 0.49
61 | ATTCTTTTTTTTTTCTTATATTCTAATCACCACCTT [XGTACX_negctrl_site179] | 8.78 ± 0.64
62 | CATATAAATAAACACACACACACATATATATATATA [CACACA_site5309] | 10.06 ± 0.064
63 | TATATATATATTTTTGGTACAGATATTTTCTTCTCT [XGTACX_site4432] | 9.06 ± 0.4
64 | AATATATATATATATTGTACACACATTTATGCATAT [XGTACX_site6856] | 9.43 ± 0.28
65 | TTACAACCATAAAATGCATGTAAATGACAAAAAAAA [TGCATGCA_site944] | 8.79 ± 0.4
66 | ATTAAAATGGAGTATTAATATGATATATATATATAT [GTGCAC_negctrl_site509] | 9.19 ± 0.25

Row | Sequence | gcPBM binding intensity (ln)
67 | AGGAACATTTACGCCCCACACACCTACCAACAAAAA [CACACA_site3827] | 9.59 ± 0.23
68 | TAAATACAGACATACACACATACACCCACATATATA [CACACA_site547] | 9.76 ± 0.38
69 | GTTAATTTAATTATATGTACGAAAAAATACGTTATA [XGTACX_site1306] | 8.45 ± 0.41
70 | TTTTTATTTTTTTATTTCTTATCAAATAAAATATAT [XGTACX_negctrl_site537] | 8.29 ± 0.51
71 | ACATAATATACTATTGTGCACATATATATATATATA [GTGCAC_site9761] | 9.72 ± 0.33
72 | ACCCTTCAATTTAATTGTACAAGAAAAAAAAAAAAA [XGTACX_site2927] | 8.39 ± 0.54
73 | TGCTCAAACTTTACAAATGAACGAATATAAAAAAAG [CACACA_negctrl_site541] | 8.54 ± 0.5
74 | AAATAATCATAAAATAAACACACATATATAAATATA [CACACA_site7981] | 8.89 ± 0.42
75 | TTACAAAAAGGTAATTTACACACTGCATATAGGAAT [CACACA_site8956] | 8.91 ± 0.43
76 | TCTTAATATGGTAATACACACTAATATACTTTTGTT [CACACA_site4969] | 8.9 ± 0.37
77 | TAATTTATCCTATAATGTACTTATAAAATATATCAT [XGTACX_site1460] | 8.53 ± 0.38
78 | ATGTACATAAACCGCACACATATAAAAAAATAAATA [CACACA_site5571] | 9.44 ± 0.38
79 | AGTCCATTTTATTATTGTACATATTAATTTATATCA [XGTACX_site672] | 9.1 ± 0.39
80 | ATTCAGAGTATATAAAAATTAATATATACATAATAT [CACACA_negctrl_site1782] | 8.63 ± 0.45
81 | TAGATATTTTTGAAAAGTACAAATTTTTAAAAATTA [XGTACX_site4420] | 8.07 ± 0.42
82 | GTATGATTACAAGAAAGTAGTCCACTTTAACAACAA [CACACA_negctrl_site1304] | 8.8 ± 0.4
83 | AATATTTTGTTATTTATTTAATCTAATATTACTATC [CACACA_negctrl_site4] | 8.67 ± 0.45
84 | ATATATATATAAATATGTACATATATACATATATAC [XGTACX_site2374] | 8.89 ± 0.23
85 | ATTATAGAATATTGAAGTACAAAATTTAAAATAAGT [XGTACX_site1468] | 8.78 ± 0.41
86 | AAAAAAAAAAAATACACACAAACACAAATTAAATAA [CACACA_site3809] | 9.32 ± 0.32
87 | TAGGAAAATTACAAAAGTACTTGGCACATAATAATG [XGTACX_site6005] | 8.7 ± 0.42
88 | TATATATATATATATGCACACATTTATACAATTTTA [CACACA_site2986] | 9.57 ± 0.26
